Among all 310,000 compounds or so, about 14,000 (4.5%) showed an effect of 50% or more. Effects have a minus sign here. The list shows a part of the results.
The compounds below were run against human ether-à-go-go-related gene (hERG) potassium channel (human, UniProt Q12809) (assay: primary screen, population patch clamp on CHO cells stably expressing hERG).
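Also: peak tail current of the secondary pulse compared with the same well before compound.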

Sequence of human ether-à-go-go-related gene (hERG) potassium channel (Q12809 whole entry, looked up): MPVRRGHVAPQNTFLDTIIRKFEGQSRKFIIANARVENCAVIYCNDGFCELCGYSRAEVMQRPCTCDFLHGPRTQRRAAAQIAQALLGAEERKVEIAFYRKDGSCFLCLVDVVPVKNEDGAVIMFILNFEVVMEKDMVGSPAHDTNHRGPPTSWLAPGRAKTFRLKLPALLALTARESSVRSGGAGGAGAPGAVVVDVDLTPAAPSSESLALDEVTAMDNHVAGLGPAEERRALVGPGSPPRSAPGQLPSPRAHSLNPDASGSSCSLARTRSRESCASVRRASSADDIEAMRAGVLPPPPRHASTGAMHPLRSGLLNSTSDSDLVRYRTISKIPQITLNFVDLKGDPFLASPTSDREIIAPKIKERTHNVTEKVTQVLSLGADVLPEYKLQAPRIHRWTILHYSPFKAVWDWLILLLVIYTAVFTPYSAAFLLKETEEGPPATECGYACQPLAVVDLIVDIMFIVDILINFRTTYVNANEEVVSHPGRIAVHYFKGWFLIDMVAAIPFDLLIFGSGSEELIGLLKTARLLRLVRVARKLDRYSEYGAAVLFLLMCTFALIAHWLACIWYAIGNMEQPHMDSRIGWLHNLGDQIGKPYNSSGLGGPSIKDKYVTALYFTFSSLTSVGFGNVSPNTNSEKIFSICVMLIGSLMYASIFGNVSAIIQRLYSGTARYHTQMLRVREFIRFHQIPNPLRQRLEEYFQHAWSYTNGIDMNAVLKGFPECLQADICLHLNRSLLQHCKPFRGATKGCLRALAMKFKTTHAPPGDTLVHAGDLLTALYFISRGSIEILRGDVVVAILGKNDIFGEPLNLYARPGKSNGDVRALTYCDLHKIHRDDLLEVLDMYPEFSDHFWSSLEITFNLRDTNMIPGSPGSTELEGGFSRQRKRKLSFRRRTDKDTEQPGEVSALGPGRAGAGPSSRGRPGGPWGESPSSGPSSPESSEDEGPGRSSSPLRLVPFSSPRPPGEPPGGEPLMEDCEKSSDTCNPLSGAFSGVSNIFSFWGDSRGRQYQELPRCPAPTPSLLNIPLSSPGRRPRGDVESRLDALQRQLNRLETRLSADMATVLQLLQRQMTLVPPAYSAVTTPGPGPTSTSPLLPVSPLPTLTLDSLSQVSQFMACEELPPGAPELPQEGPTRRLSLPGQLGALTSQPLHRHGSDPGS

Row | Compound | hERG current change (%, negative = inhibition) at 10uM
1 | OCC1(Cc2ccccc2Cl)CCN(C/C=C/c2ccccc2)CC1 | -68.4%
2 | CCCCCCC(=O)Nc1cc2c(C)cc(=O)oc2cc1C | -22.8%
3 | CCOC(=O)c1cc(C#N)c(SCC(N)=O)[nH]c1=O | 4.81%
4 | Cc1ccc(NC(=O)CSc2nnc(-c3cnccn3)n2Cc2ccco2)cc1 | -21.3%
5 | COc1cc(/C=N/NC(=O)c2ccncc2)ccc1OCC(=O)Nc1ccccc1 | -27%
6 | COc1ccc(S(=O)(=O)n2nc(C)cc2C)c(C)c1C | -8.7%
7 | O=[N+]([O-])c1ccc(C23CC4CC(CC(O)(C4)C2)C3)cc1 | -37.8%
8 | CCCCOP(=O)(c1ccc(N(C)C)cc1)C(O)c1cccnc1 (stereo not drawn) | -4.93%
9 | CCOc1ccccc1NC(=O)NNC(=O)CCc1ccc(OC)cc1 | 7.08%
10 | CCCS(=O)(=O)c1c(S(=O)(=O)CCC)c2ccc(C(N)=O)cn2c1C(=O)OC | -3.5%
11 | O=C(CCc1nnc(CCCCc2ccccc2)o1)NC(c1cccnc1)C(F)(F)F (stereo not drawn) | -7.6%
12 | CC(C)(C)OC(=O)CNC(=O)c1[nH]cnc1C(=O)N[C@@H](CCCCNC(=O)OC(C)(C)C)C(=O)OC(C)(C)C | 3.6%
13 | COc1cccc(OC)c1C(=O)NCCSC1CCCCC1 | 7.03%
14 | Cc1cc(C)n2nc(SCC(=O)Nc3ccccc3)nc2n1 | -4.16%
15 | CCOc1cccc(-c2cc(=O)[nH][nH]2)c1 | 1.58%
16 | O=C(O)CCCC(=O)NCCCc1ccccc1 | 1.48%
17 | Cc1ccc(CNC(=O)c2ccc(N3CCc4ccccc43)c([N+](=O)[O-])c2)cc1 | 3.31%
18 | Cc1ccc(N2C(=O)N(CC(=O)N3CCOCC3)C(=O)C2C)cc1 (stereo not drawn) | -0.596%
19 | O=C(O)CNS(=O)(=O)c1ccc2c(c1)CCCC2 | 8.7%
20 | NS(=O)(=O)c1cccc(NC(=O)COC(=O)CN2C(=O)c3ccccc3C2=O)c1 | -12.2%
21 | CCc1noc(C)c1C(=O)Nc1nc(-c2cccs2)cs1 | -57%

Row | Compound | hERG current change (%, negative = inhibition) at 10uM
22 | O=C(NCCc1c[nH]c2ccccc12)C(=O)NCC1OCCCN1S(=O)(=O)c1ccc(F)cc1 (stereo not drawn) | 18.4%
23 | CSc1cccc(NS(=O)(=O)c2cccc3nsnc23)c1 | -10.9%
24 | Cc1ccc(C(=O)Nc2sc(C)c(-c3ccccc3)c2C(N)=O)cc1[N+](=O)[O-] | 6.82%
25 | O=C(NCCc1ccc(C(F)(F)F)cc1)C1CCC(=O)N(CCc2cccc(F)c2)C1 (stereo not drawn) | -51.4%
26 | O=C(COC(=O)c1cccnc1)Nc1ccccc1 | 1.69%
27 | COC(=O)c1cnc(Oc2ccc(NC(=O)NC(=O)c3ccccc3Cl)cc2)cc1C(F)(F)F | 8.39%
28 | COc1ccc2c(=O)c(C(=O)NCCc3ccc(OC)c(OC)c3)c[nH]c2c1 | -0.661%
29 | Cc1ccc(C(CC(=O)O)NC(=O)c2ccc(S(=O)(=O)N3CC(C)OC(C)C3)cc2)cc1 (stereo not drawn) | -0.567%
30 | CCC(=O)Nc1ccccc1Sc1ncnc2scc(-c3ccccc3)c12 | -4.45%
31 | CN(C)CCNC(=O)c1cc2cc(Br)ccc2oc1=O | -12%
32 | COc1cccc2cc(/C(C)=N/Nc3nc(-c4cc(C)ccc4C)cs3)c(=O)oc12 | 10.5%
33 | N#Cc1c2c(c(-c3ccco3)[nH]c1=O)CCCC2 | -0.163%
34 | COc1ccccc1N1C(=O)[C@@H]2C(C(=O)CN3C(=O)c4ccccc4C3=O)=NN[C@@H]2C1=O | 1.65%
35 | O=C(Cn1c2ccccc2c(=O)c2ccccc21)N/N=C/c1cc([N+](=O)[O-])ccc1N1CCCCC1 | -6.1%
36 | CCOc1ccccc1N1CCN(C(=O)CNC(=O)c2ccccc2F)CC1 | -51.1%
37 | Cc1ccc(NC(=O)COC(=O)CSC(=S)N2CCOCC2)cc1 | 16.6%
38 | C/C(=N\N=C(N)N)c1cc(Cl)ccc1Cl.CC(=O)O | -11.1%
39 | CCOC(=O)C1=NN(C(=O)Nc2cccc(C(F)(F)F)c2)C2C(=O)N(c3cccc(C(F)(F)F)c3)C(=O)C12 (stereo not drawn) | 9.89%
40 | COc1ccc(S(=O)(=O)N2CCCCCC2)cc1NC(=O)Cc1ccccc1F | -36.8%
41 | Cc1cccc(-n2c(SCc3cc(=O)n4ccsc4n3)nc3ccccc3c2=O)c1 | -5.76%
42 | COCC(C)NC(=O)c1cc(-c2ccc(OC)c(OC)c2)on1 (stereo not drawn) | -3.43%

Row | Compound | hERG current change (%, negative = inhibition) at 10uM
43 | Cc1c(Br)c(=O)oc2c(C)c(O)ccc12 | -10.2%
44 | O=C(COc1ccccc1)NC1CCCCCCC1 | -4.51%
45 | COc1ccc(/C=N/n2c(-c3ccc(C)cc3)n[nH]c2=S)cc1OC | 8.36%
46 | CCN(CC)P(=O)(/C(Cl)=C\Nc1c(C)n(C)n(-c2ccccc2)c1=O)N(CC)CC | -17.6%
47 | CCc1ccc(-n2c(Cn3nc(C(F)(F)F)cc3C)n[nH]c2=S)cc1 | 10.1%
48 | Cc1ccc(-c2noc(CCCc3ccccc3)n2)cc1 | 5.95%
49 | CCCCOC(=O)C[N+](C)(C)CCOC1CC2CCC1(C)C2(C)C.[Br-] (stereo not drawn) | -52.7%
50 | CS(=O)(=O)N(Cc1ccc(C(=O)NCc2ccco2)cc1)c1ccccc1 | -7.93%
51 | Cn1c(NCc2ccco2)nc2c1c(=O)n(Cc1ccc(Cl)cc1)c(=O)n2C | 12%
52 | CC(=O)c1ccc(N(CC(=O)NC2CCCC2)C(=O)CCC(=O)Nc2cc(C)on2)cc1 | 1.93%
53 | Cc1ccc(CNC(=O)COC(=O)c2c(C)noc2C)cc1 | 3.34%
54 | Cc1sc2cc3c(c(C(=O)c4ccccc4)[n+]2c1C)-c1cccc2cccc-3c12.[Br-] | -77.1%
55 | O=C(c1ccc(COc2ccccc2Cl)o1)N1CCN(c2ccccc2)CC1 | -24.1%
56 | O=C(CSc1nnc(-c2ccc(F)cc2)c2ccccc12)Nc1ccccc1Cl | -8.52%
57 | c1ccc(-n2nnnc2-c2cnc(-c3ccncc3)nc2-c2cccs2)cc1 | -30.9%
58 | CCC(=O)Nc1cccc(NC(=S)NC(=O)c2cccs2)c1 | 3.59%
59 | O=C(/C=C/c1cc([N+](=O)[O-])ccc1OC(F)F)Nc1cccc(OC(F)F)c1 | -0.988%
60 | CC(=O)C1CCCN(C(=O)c2ccc3oc(CCc4ccccc4)nc3c2)C1 (stereo not drawn) | -14.2%
61 | CC1CCCCC1NC(=O)CN(C)S(=O)(=O)c1ccc2c(c1)c(=O)n(C)c(=O)n2C (stereo not drawn) | -5.53%
62 | COc1ccccc1NC(=O)c1cc(S(=O)(=O)NC2CCCC2)ccc1F | 11.7%
63 | CCCCN(C(=O)NCCCCCCNC(=O)N(CCCC)C1CCS(=O)(=O)C1)C1CCS(=O)(=O)C1 (stereo not drawn) | 30.2%

Row | Compound | hERG current change (%, negative = inhibition) at 10uM
64 | COc1ccc(NC(=O)CC2SC(=O)NC2=O)cc1 (stereo not drawn) | 26.8%
65 | COc1ccc(F)cc1S(=O)(=O)Nc1cc2c3c(c1)CCC(=O)N3CCC2 | 9.43%
66 | CC(C)(C)c1[nH]nc2c1C(c1ccco1)C(C#N)=C(N)O2 (stereo not drawn) | 2.69%
67 | O=C(NCc1ccco1)C1CCN(c2ccc(S(=O)(=O)N3CCOCC3)cc2[N+](=O)[O-])CC1 | -70%
68 | CCCNC(=O)C1(S(=O)(=O)c2ccccc2)CC=CC1 | -14.5%
69 | Cc1ccc(-c2nnc(Nc3ccc(CC(N)=O)cc3)c3ccccc23)cc1S(=O)(=O)NCC1CCCO1 (stereo not drawn) | 9.83%
70 | Fc1ccccc1/C=N/Nc1nc(N2CCCCC2)nc(N2CCCCC2)n1 | 16.7%
71 | CC(C)(C)c1ccc(C(=O)N/C(=C\c2cccc([N+](=O)[O-])c2)C(=O)Nc2cccc(C(=O)O)c2)cc1 | 12.7%
72 | Cc1ccc2c(c1)N(C(C)C(=O)NCc1cccs1)C(=O)CO2 (stereo not drawn) | 2.67%
73 | CCc1nc(N)nc(N)c1-c1ccc(Cl)cc1 | -20.7%
74 | O=S(=O)(NC1CCN(Cc2ccccc2)CC1)c1cccc2cccnc12 | -22%
75 | COc1cccc(N(C(=O)CNC(=O)c2ccco2)C(C(=O)NC2CCCC2)c2cccnc2)c1 (stereo not drawn) | -5.54%
76 | Cc1cccnc1CC(C)NC(=O)c1cc(COc2cncc(Cl)c2)on1 (stereo not drawn) | -3.75%
77 | O=C(Nc1cccc(NC(=O)c2cccs2)c1)c1ccc(Br)cc1 | 13.5%
78 | COC(=O)CC1=C(C(=O)OC)C2(C(=O)Nc3c(C)cccc32)C(C#N)=C(N)O1 (stereo not drawn) | -3.24%
79 | COc1ccccc1/C=C(\NC(=O)c1ccc(OC)c(OC)c1)C(=O)Nc1cccc([N+](=O)[O-])c1 | -3.5%
80 | CCCCNC(=O)Cn1cnc2c(cnn2-c2ccc(C)cc2)c1=O | 1.75%
81 | COc1cccc(NC(=O)CN(C)C(C)C(=O)Nc2ccc(S(=O)(=O)N3CCCC3)cc2)c1 (stereo not drawn) | -0.933%
82 | CCCc1nc(SCC(=O)Nc2ccc(S(=O)(=O)N(C)C)cc2)c2ccccc2n1 | 1.09%
83 | O=C(Nc1ccc(-c2nc3cc(Cl)ccc3o2)cc1)C1CCCO1 (stereo not drawn) | 8.99%
84 | CC(Nc1ccc2ccccc2c1)C(=O)N/N=C/c1ccncc1 (stereo not drawn) | -24.5%

Reference: article PMC4336329 (PLoS ONE, 2015)
